Each structure is given as a SMILES string. Hit rate of the full screen: of about 310,000 compounds, about 14,000 (4.5%) showed an effect of 50% or more. The effect is printed as a negative number. This is one part of the list.
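Further: peak tail current of the secondary pulse compared with the same well before compound.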

For this experiment, the target named is human ether-à-go-go-related gene (hERG) potassium channel (human, UniProt Q12809). Briefly: primary screen, population patch clamp on CHO cells stably expressing hERG.
Chain of human ether-à-go-go-related gene (hERG) potassium channel (Q12809 whole entry, looked up): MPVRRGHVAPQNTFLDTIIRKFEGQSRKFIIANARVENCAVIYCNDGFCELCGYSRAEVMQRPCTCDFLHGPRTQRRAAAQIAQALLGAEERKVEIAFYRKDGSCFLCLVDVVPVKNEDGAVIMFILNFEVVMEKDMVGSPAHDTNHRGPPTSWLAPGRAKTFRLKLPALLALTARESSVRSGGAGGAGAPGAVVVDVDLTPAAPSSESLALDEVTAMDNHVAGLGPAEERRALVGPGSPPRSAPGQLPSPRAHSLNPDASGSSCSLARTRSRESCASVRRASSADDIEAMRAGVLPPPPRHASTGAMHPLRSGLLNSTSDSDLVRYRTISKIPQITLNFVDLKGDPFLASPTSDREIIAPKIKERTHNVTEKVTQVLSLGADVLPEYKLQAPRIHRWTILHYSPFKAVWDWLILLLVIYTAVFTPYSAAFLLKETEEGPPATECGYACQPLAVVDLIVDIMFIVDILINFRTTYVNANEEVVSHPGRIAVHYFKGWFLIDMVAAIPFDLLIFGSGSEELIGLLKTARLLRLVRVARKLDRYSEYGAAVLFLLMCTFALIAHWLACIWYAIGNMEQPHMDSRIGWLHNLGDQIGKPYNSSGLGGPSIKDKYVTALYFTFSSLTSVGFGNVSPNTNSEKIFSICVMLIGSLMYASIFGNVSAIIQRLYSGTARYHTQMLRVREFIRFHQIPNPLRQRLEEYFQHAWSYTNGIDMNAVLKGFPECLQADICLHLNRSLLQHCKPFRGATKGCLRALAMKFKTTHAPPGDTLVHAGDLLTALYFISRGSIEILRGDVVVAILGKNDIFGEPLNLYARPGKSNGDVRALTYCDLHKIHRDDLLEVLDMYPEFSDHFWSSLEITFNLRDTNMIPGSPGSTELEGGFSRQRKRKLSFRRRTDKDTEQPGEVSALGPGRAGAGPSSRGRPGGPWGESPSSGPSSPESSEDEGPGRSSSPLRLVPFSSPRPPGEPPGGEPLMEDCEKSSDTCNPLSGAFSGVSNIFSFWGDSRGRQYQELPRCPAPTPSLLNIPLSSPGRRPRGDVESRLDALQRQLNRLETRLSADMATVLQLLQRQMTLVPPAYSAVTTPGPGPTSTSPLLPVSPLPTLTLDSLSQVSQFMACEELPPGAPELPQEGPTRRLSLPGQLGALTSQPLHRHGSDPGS
Consider `O=C(COC(=O)c1ccccc1NC(=O)c1ccco1)NC1CC1`, for which the “hERG current change (%, negative = inhibition) at 10uM” value is recorded as -19%.
Turning to `CC(=O)Nc1ccc(S(=O)(=O)NCC(=O)OCC(=O)NNC(=O)c2ccccc2)cc1`, the “hERG current change (%, negative = inhibition) at 10uM” value is on record as 4.77%.
In the case of `CN(C)/C=C(\C#N)S(=O)(=O)c1ccc(Cl)cc1`, the “hERG current change (%, negative = inhibition) at 10uM” value amounted to 8.4%.
For `O=C(CCN1CCN(c2ccccc2)CC1)NNC(=O)c1cccc2ccccc12` the value was -11%; for `COc1ccc(N2CSC3=C(C#N)C(c4cc(OC)c(OC)cc4OC)CC(=O)N3C2)c(OC)c1` (stereo not shown), -32.2%; for `Cn1c(SCC(=O)NCc2ccccc2)nnc1C1CC1`, 12.4%.
Next, `O=C(O)COc1c(F)c(F)c(C(F)(F)F)c(F)c1F`: 7.86%; `COC(=O)c1cc(C)sc1NC(=O)CCc1ccccc1`: 5.4%.
Consider `CN1CCC(OC(=O)C23CCC(C)(C(=O)O2)C3(C)C)CC1` (stereo not shown), for which the “hERG current change (%, negative = inhibition) at 10uM” value is listed as 2.79%.
For `CCOC(=O)C1=C(Nc2ccc(Cl)cc2)OCC1=O` the value was 6.4%; for `O=C(O/N=C/C1=C(Cl)c2ccccc2CC1)c1ccc(F)cc1`, 2.06%; for `CN(C(=O)CCc1nc2ccccc2s1)c1ccccc1`, -11.6%.
Take `O=C(CN1CCN(c2ccc(F)cc2)CC1)Nc1ccc(S(=O)(=O)N2CCOCC2)cc1`: the “hERG current change (%, negative = inhibition) at 10uM” value is 0.845%.
Next, `COc1ccc(Cc2c3cc(OC)c(OC)cc3cc[n+]2C)cc1OC.[I-]`: 12.3%.
As for `CCC(CC)NC(=O)c1oc2ccccc2c1COc1ccccc1`, the “hERG current change (%, negative = inhibition) at 10uM” value is given as -23.4%.
As for `CCOc1ccc(-c2cn[nH]c2N)cc1`, the “hERG current change (%, negative = inhibition) at 10uM” value is reported as -5.03%.
As to `Nc1ccc(OCc2ccccc2)cc1`, the “hERG current change (%, negative = inhibition) at 10uM” value is listed as -0.533%.
For `O=C(Cc1c2ccccc2nc2ccccc12)c1ccccc1` the value was 43.2%.
Consider `Cc1ccc(S(=O)(=O)N2CCC(C(=O)C3C(=O)CC(C)(C)CC3=O)CC2)cc1`, for which the “hERG current change (%, negative = inhibition) at 10uM” value was 20%.
Next, `Cc1c(CC(=O)NCCCC(=O)O)c(=O)oc2c(C)c3oc4c(c3cc12)CCCC4`: 13.9%; `CC(C)Oc1ccc2c(c1)OC(c1ccccc1)(C(F)(F)F)NC2=O` (stereo not shown): -1.44%.
Turning to `CCn1c(C)nc2cc(C(=O)NNS(=O)(=O)c3c(F)cc(F)c(Cl)c3F)ccc21`, the “hERG current change (%, negative = inhibition) at 10uM” value turned out to be 0.721%.
With `COC(=O)C1CCN(C(=O)c2c(-c3ccccc3Cl)noc2C)CC1`, the “hERG current change (%, negative = inhibition) at 10uM” value is 18.2%.
Next, `COC(=O)/C(C#N)=C/c1occc1C`: 0.0829%; `CCOC(=O)N1CCN(S(=O)(=O)c2ccc(C(=O)N(CCN(C)C)c3nc4c(C)cccc4s3)cc2)CC1.Cl`: -37.5%.
Next, `Cc1cc(C)c(C#N)c(SCCS(=O)(=O)c2ccc(Cl)cc2)n1`: -5.2%; `COc1ccccc1C(C)NS(=O)(=O)c1cccs1` (stereo not shown): 11.9%; `Cc1cc(C)c(NC(=O)CSc2nc3ccc(NC(=O)CSc4nnnn4Cc4ccccc4)cc3s2)c(C)c1`: 0.987%.
For `Cc1nc(Nc2ccc(Cl)cc2)c2oc3ccccc3c2n1` the value was 3.95%; for `O=c1[nH]c(=O)n(CCc2ccccc2)c(O)c1C=NCc1ccc2c(c1)OCO2`, -4.95%.
In the case of `Cc1ccc(C(=O)Nc2c(C)cc(-c3ccc(Cl)cc3)oc2=O)cc1`, the “hERG current change (%, negative = inhibition) at 10uM” value is on record as -6.18%.
In the case of `CCn1c(SCC(=O)Nc2ccc3c(c2)OCO3)nc2ccccc21`, the “hERG current change (%, negative = inhibition) at 10uM” value is listed as 4.47%.
For `Cn1c(O)c(C2=c3ccccc3=NC2=O)sc1=Nc1ccc(Cl)cc1` the value was -8.62%.
For `COc1ccc(/C=N/Nc2nc3ccccc3o2)cc1OC`, the “hERG current change (%, negative = inhibition) at 10uM” value was 13.3%.
Next, `COc1ccc(C2/C=C\CN(Cc3ccco3)CC(=O)N2Cc2ccc(F)cc2)cc1` (stereo not shown): -1.92%; `CN1CCCN(C(=O)CC2(CC(=O)O)CCCC2)CC1.Cl`: 8.11%; `CCCCCCCCCCOC(=O)c1csc2nnsc12`: 4.04%.
As for `CCN(CC(=O)Nc1ccccc1OC)C(=O)c1cccc(-n2cccc2)c1`, the “hERG current change (%, negative = inhibition) at 10uM” value is -27.2%.
As to `Cn1c(=O)c2c(-c3ccccc3)n3c4ccccc4ncc3c2n(C)c1=O`, the “hERG current change (%, negative = inhibition) at 10uM” value was -6.9%.
For `CC(C)COC(=O)C1[C@H]2C(=O)N(Cc3cccs3)C[C@]23C=C[C@H]1O3` (stereo partly shown) the value was 0.82%; for `CCCCOc1cccc(C(=O)N(Cc2ccco2)C2CCS(=O)(=O)C2)c1` (stereo not shown), -12.5%.
Regarding `CN(C)/C=C/C(=O)c1cccc(Oc2ncccn2)c1`, the “hERG current change (%, negative = inhibition) at 10uM” value is given as 7.53%.
Next, `COc1ccc(N2CC(C(=O)OCC(=O)NCc3ccccc3)CC2=O)cc1` (stereo not shown): -39.3%; `Cc1ccc(N(C(C)C(=O)Nc2ccc(S(=O)(=O)N3CCOCC3)cc2)S(C)(=O)=O)cc1C` (stereo not shown): 1.77%.
In the case of `COc1ccc(C2=NS(=O)(=O)N(C)C(C(=O)N3CCCCC3C)=C2)cc1` (stereo not shown), the “hERG current change (%, negative = inhibition) at 10uM” value is -17%.
For `CC(C)NS(=O)(=O)c1ccc(OCC(=O)Nc2cccc(F)c2)cc1` the value was -11.1%.
For `N#Cc1ccc(C(=O)Nc2ccc([N+](=O)[O-])cc2)c(F)c1` the value was 4.42%; for `CCOC(=O)N1CCN(C(=O)Cc2cccs2)CC1`, 11%; for `Cc1occc1-c1nnc(SCC(=O)NCCc2ccccc2)n1C(C)c1ccccc1` (stereo not shown), -31.8%.
Consider `Cc1ccc(OCCCCN2CCC(C)CC2)cc1.O=C(O)C(=O)O`, for which the “hERG current change (%, negative = inhibition) at 10uM” value is reported as -23.4%.
For `CCCN1Cc2cccc(C(=O)Nc3ccc4c(c3)OCCO4)c2C1=O` the value was 6.32%.
Next, `CCOc1ncccc1C(=O)N1CCCSC1=Nc1ccc(C(C)=O)cc1`: 9.27%.
Regarding `CS(C)=O.Cc1[nH]c2ccccc2c1/C=N/Nc1ccc([N+](=O)[O-])cc1S(=O)(=O)Nc1ccc(Cl)cc1`, the “hERG current change (%, negative = inhibition) at 10uM” value turned out to be 14.8%.
For `CC(C)c1ccc(CNc2c([N+](=O)[O-])c(=O)oc3ccccc23)cc1` the value was 14.2%.
For the molecule `Cc1cc(C(=O)N2CCN(c3cccc(Cl)c3)CC2)c(C)o1`, the “hERG current change (%, negative = inhibition) at 10uM” value is -12.5%.
For `COc1cc(/C=C2\SC(=Nc3ccc(Cl)c(C(=O)O)c3)NC2=O)c(Br)c(Br)c1O` the value was 12.9%; for `NNC(=O)c1ccc(COc2cccc3cccnc23)cc1`, 18%; for `CCc1ccc(NC(=O)C2CCN(S(=O)(=O)c3c(C)noc3/C=C/N(C)C)CC2)cc1`, 3.89%.
Turning to `Cc1nn(Cc2ccc(Cl)cc2Cl)c(C)c1NC(=O)C1C2CCC(O2)C1C(=O)O` (stereo not shown), the “hERG current change (%, negative = inhibition) at 10uM” value was -9.88%.
Regarding `Cc1ccc(S(=O)(=O)N2CCN(CCOc3cccc(C)c3)CC2)cc1`, the “hERG current change (%, negative = inhibition) at 10uM” value is given as -4.07%.
For the molecule `CCOC(=O)C(=O)/C(=C\N(C)C)c1onc(-c2ccccc2)c1C(=O)OC`, the “hERG current change (%, negative = inhibition) at 10uM” value came to 11.9%.
Consider `CCS(=O)(=O)N1CCC(N2CCN(c3ccccc3)CC2)CC1`, for which the “hERG current change (%, negative = inhibition) at 10uM” value was -10.9%.
In the case of `Cc1ccc(S(=O)(=O)N2CCN(C(=O)c3ccnn3C)CC2)cc1C`, the “hERG current change (%, negative = inhibition) at 10uM” value is 8.37%.
For `O=C(O)c1ccc(N/N=C/c2c[nH]c3ccccc23)cc1` the value was -18.1%; for `O=C(COC(=O)c1ccccc1)Nc1ccccc1Sc1ccccc1`, 4.88%; for `COc1ccc(-c2csc(NC(=O)c3ccc(N4C(=O)CCC4=O)cc3)n2)cc1`, 43.8%.
Next, `Cc1c(Cl)cccc1NC(=S)NC1CCCC1`: -5.1%; `COc1cc(NC(=O)c2ccco2)c(C(=O)OCC(=O)c2c[nH]c3ccccc23)cc1OC`: 25.9%; `Cc1cc(-c2nn(-c3ccccc3F)cc2CN(C)CC(O)CO)c(C)s1` (stereo not shown): -22.3%.
For `Cc1ccc(N(Cc2ccccc2F)S(C)(=O)=O)cc1C` the value was -6.87%; for `CCO[C@H]1OC(C(N)=O)=C[C@@H](c2ccccc2)[C@@H]1CCCO`, 2.91%; for `Cn1c(CNc2nc3ccccc3n2CCN2CCCCC2)nc2ccccc21`, -65%.
For the molecule `CC(NCCO)C(=O)C12CC3CC(CC(C3)C1)C2.Cl` (stereo not shown), the “hERG current change (%, negative = inhibition) at 10uM” value came out at 13.1%.
For `O=C(COc1ccc(Cl)cc1)NCc1ccc(F)cc1` the value was -6.94%.
For `COc1ccc(NC(C)=O)cc1NC(=O)CSc1nnc(-c2ccccn2)n1C` the value was -7.69%; for `Cc1ccccc1NC(=O)Cn1cnc2c(oc3ccccc32)c1=O`, 11.6%.
For `O=C(CSc1nnc(-c2ccc(O)cc2)n1Cc1ccco1)N1CCc2ccccc2C1` the value was -44.1%; for `COCCn1c(=S)[nH]c2cc(C(=O)NCCCN3CCOCC3)ccc2c1=O`, 8.93%; for `CC(=O)NC(=S)Nc1ccc(NC(=O)c2cccnc2)cc1`, 10.1%.
Consider `CCCc1cc(=O)oc2c(C)c(OCC(=O)NCCCn3ccnc3)ccc12`, for which the “hERG current change (%, negative = inhibition) at 10uM” value is -75.3%.
Take `NS(=O)(=O)c1ccc(CCNC(=O)Cc2ccc(Cl)cc2)cc1`: the “hERG current change (%, negative = inhibition) at 10uM” value was 12.2%.
In the case of `COc1ccc(CNC(=O)CCCN2C(=O)NC3(CCCC3)C2=O)cc1`, the “hERG current change (%, negative = inhibition) at 10uM” value is -12%.
On to `c1ccc(Cn2nnc3c(NCC4CCCO4)ncnc32)cc1` (stereo not shown), for which the “hERG current change (%, negative = inhibition) at 10uM” value was found to be 4.56%.
As for `O=C(c1ccc(F)cc1)N1C2CCC1CC(O)(c1ccccc1F)C2` (stereo not shown), the “hERG current change (%, negative = inhibition) at 10uM” value was -2.26%.
For the molecule `CC(C)(C)Nc1nc(Cl)nc(NCCN2CCOCC2)n1`, the “hERG current change (%, negative = inhibition) at 10uM” value was found to be 7.39%.
With `Cc1ccc(NC(=O)c2nc(S(=O)(=O)Cc3ccccc3C)ncc2Cl)cc1C`, the “hERG current change (%, negative = inhibition) at 10uM” value is listed as 2.81%.
For the molecule `Cc1cc(C)cc(NC(=O)c2cc(S(=O)(=O)NCc3ccco3)ccc2F)c1`, the “hERG current change (%, negative = inhibition) at 10uM” value is given as -6.51%.
Next, `C/C(=N\NC(=O)c1cccc(Br)c1)c1cccnc1`: -1.53%.

Values taken from paper PMC4336329 (PLoS ONE, 2015).
